# PubChem BioAssay AID504333 (National Center for Advancing Translational Sciences (NCATS), 2011)
# About 16,000 (4.4%) of roughly 360,000 compounds were called active. The shares of active, inactive and inconclusive entries below differ from those in the screen. Calls follow the shape of the dose curve; as a rule, active = well fitted inhibition curve with a large enough effect; inconclusive = small, poorly fitted or top-dose-only effect; inactive = no such curve, though single readings can be large or run the other way. Potencies beside an inconclusive call are fits to weak or partial responses and may not hold up.
# Biological target: Bromodomain adjacent to zinc finger domain protein 2B (Homo sapiens) (UniProt Q9UIF8)
# Assay: qHTS Assay for Inhibitors of BAZ2B; also: nearly all actives have a fitted effect of over 60% in size
# Conditions: AlphaScreen BAZ2B-H3K14Ac peptide displacement; series mostly up to 114 µM
# Method in brief: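 Compounds, titrated to a top concentration of 110 uM, were incubated 30 min at room temperature with preformed BAZ2B/acetyl-K14 H3 peptide complex (50 nM each). Proximity signal was measured by AlphaScreen after 20 min with beads.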
# Potency is read from the fitted curve at half-maximal effect; tags tell the direction and shape of the fitted curve.
# UniProt Q9UIF8, sequence (Q9UIF8 whole entry, looked up, the tested form may be a part): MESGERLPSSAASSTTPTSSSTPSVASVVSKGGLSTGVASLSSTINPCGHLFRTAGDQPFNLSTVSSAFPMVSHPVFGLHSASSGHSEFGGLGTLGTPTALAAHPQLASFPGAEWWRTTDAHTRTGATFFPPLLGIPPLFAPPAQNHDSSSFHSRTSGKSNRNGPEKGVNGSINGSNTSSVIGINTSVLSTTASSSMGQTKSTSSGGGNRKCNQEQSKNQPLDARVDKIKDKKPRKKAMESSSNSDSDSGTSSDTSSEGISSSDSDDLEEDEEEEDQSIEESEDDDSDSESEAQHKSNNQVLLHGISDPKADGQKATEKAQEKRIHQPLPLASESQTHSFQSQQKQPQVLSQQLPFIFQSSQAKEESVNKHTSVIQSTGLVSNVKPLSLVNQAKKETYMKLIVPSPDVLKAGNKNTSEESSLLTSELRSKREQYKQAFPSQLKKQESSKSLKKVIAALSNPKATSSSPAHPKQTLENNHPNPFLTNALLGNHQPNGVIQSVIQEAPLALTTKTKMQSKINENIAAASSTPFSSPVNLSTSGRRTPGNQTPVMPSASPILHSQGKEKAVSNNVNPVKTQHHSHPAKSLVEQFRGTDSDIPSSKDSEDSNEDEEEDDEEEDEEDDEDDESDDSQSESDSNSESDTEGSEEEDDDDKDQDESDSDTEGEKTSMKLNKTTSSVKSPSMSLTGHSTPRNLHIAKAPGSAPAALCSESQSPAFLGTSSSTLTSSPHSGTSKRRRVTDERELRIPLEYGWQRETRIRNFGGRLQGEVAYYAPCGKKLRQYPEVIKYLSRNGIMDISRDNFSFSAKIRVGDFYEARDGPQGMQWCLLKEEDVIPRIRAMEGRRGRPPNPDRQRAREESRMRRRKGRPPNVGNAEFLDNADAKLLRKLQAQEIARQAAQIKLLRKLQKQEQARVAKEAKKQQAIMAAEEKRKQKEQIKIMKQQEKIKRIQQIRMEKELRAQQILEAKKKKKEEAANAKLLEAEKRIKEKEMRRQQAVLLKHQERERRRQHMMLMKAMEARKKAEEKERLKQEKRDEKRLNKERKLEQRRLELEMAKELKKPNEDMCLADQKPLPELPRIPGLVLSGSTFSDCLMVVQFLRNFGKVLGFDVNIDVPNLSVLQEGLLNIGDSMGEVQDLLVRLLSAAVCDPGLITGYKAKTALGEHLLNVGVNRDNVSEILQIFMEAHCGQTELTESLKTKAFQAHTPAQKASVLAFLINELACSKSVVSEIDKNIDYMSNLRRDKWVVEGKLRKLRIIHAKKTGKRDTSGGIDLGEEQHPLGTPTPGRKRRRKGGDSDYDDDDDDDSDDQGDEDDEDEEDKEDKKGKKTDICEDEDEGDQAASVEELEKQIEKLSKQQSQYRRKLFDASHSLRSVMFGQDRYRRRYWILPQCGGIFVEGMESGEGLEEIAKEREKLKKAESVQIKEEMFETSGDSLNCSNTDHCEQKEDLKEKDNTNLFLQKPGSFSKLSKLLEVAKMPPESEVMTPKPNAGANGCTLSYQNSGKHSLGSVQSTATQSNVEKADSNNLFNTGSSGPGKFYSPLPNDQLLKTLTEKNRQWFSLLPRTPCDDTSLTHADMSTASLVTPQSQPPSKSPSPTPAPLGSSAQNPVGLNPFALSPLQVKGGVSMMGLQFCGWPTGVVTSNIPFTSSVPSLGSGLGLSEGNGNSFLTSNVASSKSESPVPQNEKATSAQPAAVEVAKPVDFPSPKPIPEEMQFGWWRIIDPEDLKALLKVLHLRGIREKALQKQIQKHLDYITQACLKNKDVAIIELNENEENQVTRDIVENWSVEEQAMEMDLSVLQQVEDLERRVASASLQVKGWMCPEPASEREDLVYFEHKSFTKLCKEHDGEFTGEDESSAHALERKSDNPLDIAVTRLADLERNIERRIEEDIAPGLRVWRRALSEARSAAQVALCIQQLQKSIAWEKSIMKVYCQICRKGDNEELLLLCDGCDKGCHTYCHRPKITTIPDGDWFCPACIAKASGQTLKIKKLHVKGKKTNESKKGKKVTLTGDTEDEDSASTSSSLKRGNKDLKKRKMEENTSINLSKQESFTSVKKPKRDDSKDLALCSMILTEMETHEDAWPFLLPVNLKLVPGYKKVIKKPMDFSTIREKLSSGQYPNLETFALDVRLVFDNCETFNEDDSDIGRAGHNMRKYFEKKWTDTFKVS
row,Structure (SMILES),Potency
1,CCN(Cc1ccccc1)C(=O)Cn1c(=O)n(-c2ccc(Cl)c(Cl)c2)c(=O)c2c(C)c(C(=O)N(C)C)sc21,"inconclusive: 56.2 µM [inhibitor, partial curve]"
2,COc1ccccc1CNC(=O)CSc1nc(=O)[nH]c2c1CCCC2,inactive
3,Cc1ccc(C)c(OCC(=O)Nc2ccccc2N2CCCC2)c1,"inconclusive: 35.5 µM [inhibitor, partial curve]"
4,CC(CCN1CCN(c2ccc(F)cc2)CC1)c1ccccc1 (stereo not drawn),"inconclusive: 89.1 µM [inhibitor, single point]"
5,O=C(Nc1ccccc1)c1ccc(Nc2c([N+](=O)[O-])cc([N+](=O)[O-])c3ccccc23)cc1,"inconclusive: 39.8 µM [inhibitor, partial curve]"
6,CC(C(=O)NCCCn1ccnc1)(c1ccccc1)c1ccccc1,"inconclusive: 89.1 µM [inhibitor, single point]"
7,CCOc1cc(/C=C2\NC(=O)NC2=O)cc([N+](=O)[O-])c1O,"inconclusive: 79.4 µM [inhibitor, partial curve]"
8,Cc1ccc(NC(=O)CNCCCN2CCOCC2)cc1S(=O)(=O)N1CCCCC1,active: 50.1 µM
9,Cc1ccc(NC(=O)c2ccc(Nc3c([N+](=O)[O-])cc([N+](=O)[O-])cc3[N+](=O)[O-])cc2)cc1,"inconclusive: 8.91 µM [inhibitor, full curve, poor fit]"
10,CCOC(=O)c1csc(N)n1,"inconclusive: 50.1 µM [inhibitor, partial curve]"
11,Cc1cc(NC(=S)N(Cc2ccc(Cl)cc2)Cc2ccc(C(=O)O)cc2)ccc1Cl,"inconclusive: 79.4 µM [inhibitor, single point]"
12,COC(=O)c1ccc(C2Nc3cccc4cccc(c34)N2)cc1,active: 35.5 µM
13,COc1ccc(-c2nc3ccc(Cl)cn3c2Nc2ccc(C)cc2)cc1,"inconclusive: 7.08 µM [inhibitor, full curve]"
14,CCOc1cc(C2C(C#N)=C(N)Oc3n[nH]c(-c4ccccc4)c32)ccc1O (stereo not drawn),"inconclusive: 89.1 µM [inhibitor, single point]"
15,CC(=O)NCCc1c(C)n(Cc2ccccc2)c2ccccc12,"inconclusive: 39.8 µM [inhibitor, partial curve]"
16,COc1cccc(-c2nc(CS(=O)(=O)CC(=O)NCCc3ccc(Cl)cc3)c(C)o2)c1,inactive
17,C/C(CC(=O)NCc1ccco1)=N\NC(=O)CC#N,"inconclusive: 89.1 µM [inhibitor, single point]"
18,CCOCCn1c(=O)c2c(nc3n2CCN3c2ccc(C)c(C)c2)n(C)c1=O,"inconclusive: 79.4 µM [inhibitor, single point]"
19,Cc1ccc(OCCC(=O)OCC(=O)Nc2ccc(Cl)cn2)cc1,"inconclusive: 79.4 µM [inhibitor, partial curve]"
20,O=C(CN1C(=O)NC2NC(=O)NC21)N/N=C/c1ccccc1O (stereo not drawn),"inconclusive: 89.1 µM [inhibitor, single point]"
21,CCOC(=O)CNC(=O)c1cc2c(=O)n3cccc(C)c3nc2n1C,"inconclusive: 89.1 µM [inhibitor, single point]"
22,COc1ccccc1C(=O)NC(C(=O)NCCc1nc2ccccc2[nH]1)=C(C)C,"inconclusive: 89.1 µM [inhibitor, single point]"

row,Structure (SMILES),Potency
1,CCCn1c(C2CCCN2c2nc(-c3ccc(C)cc3)cs2)nc2ccccc21 (stereo not drawn),"inconclusive: 50.1 µM [inhibitor, partial curve]"
2,CCc1nn2c(=O)c(S(=O)(=O)Nc3ccc(C)c(C)c3)c(C)nc2s1,"inconclusive: 89.1 µM [inhibitor, single point]"
3,CCc1ccc(OCC(=O)NN2Cc3ccccc3C2=N)cc1,inactive
4,O=C(NC(=S)Nc1cccc2c(O)cccc12)c1ccco1,"inconclusive: 70.8 µM [inhibitor, single point]"
5,Cc1cccc2c1NC(C)CC2C (stereo not drawn),"inconclusive: 89.1 µM [inhibitor, single point]"
6,O=C1/C(=C/c2ccccc2)SC(=S)N1CCCC(=O)N1CCCCC1CCO (stereo not drawn),"inconclusive: 25.1 µM [inhibitor, full curve]"
7,Cc1cc(Br)cc2c1N(Cc1ccccc1OC(C)C)C(=O)C2=O,active: 6.31 µM
8,Cc1ccc(N2CC(C(=O)Nc3ccccc3N3CCCC3)CC2=O)cc1 (stereo not drawn),"inconclusive: 79.4 µM [inhibitor, single point]"
9,Cc1cc(-c2ccc(/C=N/n3cnnc3)o2)ccc1Cl,"inconclusive: 44.7 µM [inhibitor, partial curve]"
10,COc1cccc(-c2nnc(NC(C)=O)o2)c1,"inconclusive: 79.4 µM [inhibitor, single point]"
11,COc1ccc(Cc2nnc(NC(=O)c3ccccc3)s2)cc1OC,inactive
12,CC(C)Oc1ccc(CNC(=O)c2ccc(NC(=O)N3CC(C)Sc4ccccc43)cc2)cc1 (stereo not drawn),inactive
13,COc1ccc(-c2noc(CN3CCN(C(=O)c4cccs4)CC3)n2)c(OC)c1OC,inactive
14,CCN(CC)c1ccc(C=Nc2ccc(N(C)C)cc2)c(O)c1,active: 31.6 µM
15,O=C(/C=C/c1ccc(O)c(O)c1)OC1C(O)CC(OC(=O)/C=C/c2ccc(O)c(O)c2)(C(=O)O)CC1O (stereo not drawn),inactive
16,COCCN1CCn2c(nc3cc(Nc4nnc(C)c5ccccc45)ccc32)C1,"inconclusive: 89.1 µM [inhibitor, single point]"
17,COc1ccc(N2CCN(C(=O)CSc3nnc4n3C(C)(C)Cc3ccccc3-4)CC2)cc1,"inconclusive: 89.1 µM [inhibitor, single point]"
18,CCNc1nc2[nH]c(=O)c3c(c2s1)OC(N)=C(C#N)C3c1ccc(C)cc1 (stereo not drawn),"inconclusive: 89.1 µM [inhibitor, single point]"
19,C=CCn1c(COc2cccc(C)c2)nnc1SCC(=O)NC(=O)NCc1ccco1,"inconclusive: 39.8 µM [inhibitor, partial curve]"
20,CSc1nsc(/C=C/Nc2ccc(C(=O)O)cc2)c1C#N,active: 39.8 µM
21,CC(C)(C)C(=O)CSc1ncccn1,"inconclusive: 89.1 µM [inhibitor, single point]"
